Some of the results follow.
test system: T1, C. trachomatis L2/434/Bu expressing GFP (CTL2-GFP); design: species or system HeLa; C. trachomatis total inclusion area by high-content imaging, normalised to DMSO; conditions: total inclusion area; 28.5 h, 10 µM; inhibitor
T1 construct: L2/434/Bu GFP intracellular growth in HeLa cells
In short: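 High-content images of fixed, Hoechst-stained infected cultures supply inclusion area and count (growth) plus nuclei number (viability), complementing bulk GFP/resorufin fluorescence. MIC determination is unchanged from the primary assay.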

Going from `O=C(NCc1ccccc1)c1cccc(NC(=O)c2cc(-c3ccccn3)nc3ccc(Cl)cc23)c1` [CBK267768] to `Cc1cccnc1CN(C)C(=O)c1cccc(NC(=O)C2CCCC2)c1` [CBK306913], the “% of control remaining” value falls from 124.386 to 87.4193.

Compared with `COCCCNC(=O)c1cnn2c(C)c(Cc3cccc(F)c3)c(C)nc12` [CBK162126], `COCCNc1nc(-c2ccc3c(c2)OCO3)ccc1C(=O)N(C)CCN(C)C` [CBK105915] is higher in “% of control remaining” value: 52.1694 for the first, 99.1351 for the second.

Compared with `CC(CCc1ccccc1)NC(=O)C(C)Sc1nnc(-c2cccs2)n1C1CC1` (stereo not shown) [CBK297131], `CC(C)C(=O)Nc1nc2c(nc(OCc3ccccc3)n2C2CC(O)C(CO)O2)c(=O)[nH]1` (stereo not shown) [CBK201264] is higher in “% of control remaining” value: 92.622 for the first, 95.5149 for the second.

First: CC(=O)Nc1ccc2nc(Nc3nc4c(F)cc(F)cc4s3)sc2c1 [CBK287489]
Second: Oc1cc(C(F)(F)F)nc2[nH]nc(-c3cccs3)c12 [CBK008498]
The “% of control remaining” value of the first is higher: 105.587 for the first, 58.7199 for the second.

Going from `COc1ccc(CCn2cncc2-c2cnn(C)c2)cc1C` [CBK281457] to `COc1ccc(S(=O)(=O)Nc2nccnc2-c2cccs2)cc1OC` [CBK050774], the “% of control remaining” value falls from 96.6301 to 88.2681.

Compared with `CNC(=O)c1sc2ccccc2c1C1CCN(Cc2ccc(OC)c(OC(C)C)c2)C1` (stereo not shown) [CBK285928], `COc1ccc2c(Cl)c(C(=O)NCCc3ccc(S(N)(=O)=O)cc3)sc2c1` [CBK268120] is higher in “% of control remaining” value: 95.0941 for the first, 107.62 for the second.

First: CC(=O)NCCC(=O)Nc1cc(C)ccc1C [CBK306115]
Second: O=C(NCCCNc1ccc([N+](=O)[O-])cc1)c1cccs1 [CBK066825]
The “% of control remaining” value of the first is lower: 28.8448 for the first, 86.5763 for the second.

Compared with `CCc1nc(CN2CCCC(NC(C(N)=O)c3ccccc3)C2)no1` (stereo not shown) [CBK305348], `CC(NS(=O)(=O)c1ccc(CCC(=O)O)cc1)c1ccccc1` (stereo not shown) [CBK267058] is higher in “% of control remaining” value: 40.7274 for the first, 125.202 for the second.

First: CCN(CC)CC(O)Cn1c(-c2cccc([N+](=O)[O-])c2)nc(=S)c2c1CCCC2 (stereo not shown) [CBK265700]
Second: Nc1cccc(-c2nccnc2N2CCCC2CO)c1 (stereo not shown) [CBK036786]
The “% of control remaining” value of the first is higher: 100.192 for the first, 90.3073 for the second.

Compared with `O=C(NCCCN1CCCCC1)C1CC(=O)N(Cc2ccco2)C1` (stereo not shown) [CBK305145], `O=C(O)c1ccc(N2CC(C(=O)Nc3ccc(F)cc3)CC2=O)cc1` (stereo not shown) [CBK286794] is higher in “% of control remaining” value: 87.2859 for the first, 110.888 for the second.

Going from `O=C(Cc1ccc(Cl)c(Cl)c1)N1CCC2(CCN(C(=O)c3cc(F)c(F)cc3F)C2)C1` (stereo not shown) [CBK131386] to `Cc1nc(NC(=O)Cc2c(C)nn(CC(C)C)c2C)sc1-c1n[nH]c(=S)n1C` [CBK296691], the “% of control remaining” value falls from 91.2532 to 85.3519.

— article PMC12040169 (PLOS Biology, 2025)
